# Reference: PubChem BioAssay AID1508624 (National Center for Advancing Translational Sciences (NCATS), 2021)
# Screen size: about 48,000 compounds; about 120 (0.25%) were called active. Not shown: some 4% with an inconclusive outcome. The call rests on the fitted dose curve; in most records, active means well fitted activation curve with a large enough effect; inconclusive means small, poorly fitted or top-dose-only effect, or another doubt; inactive means no such curve, though single readings can be large or run the other way. The list shows a part of the results.
# Assay: Primary qHTS for Identification of Small Molecule Activators of Huntingtin-Antisense Promoter Activity; further: nearly all actives have a fitted effect of over 55% in size
# Conditions: HEK293 HTT-AS promoter firefly luciferase reporter, 24 h; series mostly up to 57.5 µM; activity change, positive = activation: at the top concentration
# Outline: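 HEK293 Fluc reporter, 2,500 cells/well, 24 h pre-culture; cpds up to 57.5 uM final, 24 h 37 degrees C; Dual-Glo, 10 min RT; normalized vehicle = 0%, zero RLU = -100%.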
row,SMILES,"activity change, positive = activation"
1,COc1cc(OC)c(NS(=O)(=O)c2c(C(=O)N3CCC(C)CC3)c(C)n(C)c2C)cc1Cl,inactive: -17.9%
2,Cc1nnc(NC(=O)CSCc2cc(=O)c3ccccc3[nH]2)s1,inactive: -3.22%
3,COc1ccc(CCNC(=O)CCn2c(=O)c3ccccc3n(Cc3ccccc3)c2=O)cc1OC,inactive: -25.1%
4,CC(C)c1nn2c(=O)cc(COC(=O)c3ccccc3NC(=O)c3cccc(Cl)c3)nc2s1,inactive: 0.585%
5,Cc1nc2ccn(Cc3cccnc3)c(=O)c2cc1C(=O)N1CCN(c2ccc(F)cc2)CC1,inactive: -17.9%
6,COC(=O)c1ccccc1NC(=O)c1cnc2c(-c3cccc(C)c3)c(C)nn2c1C,inactive: -12.9%
7,CN(C)CCNc1oc(-c2ccc(COc3ccc(Cl)cc3)o2)nc1C#N,inactive: -14.6%
8,COc1ccc(CCNC(=O)C(C)n2c(=O)cc(C(F)(F)F)c3c(C)nn(C)c32)cc1OC (configuration not stated),inactive: -13.2%
9,Cc1cc(C)cc(Oc2nc3c(C)cccn3c(=O)c2/C=C(\C#N)c2nc3ccccc3s2)c1,"inactive: -2.59% [at 11.5 µM, percent change from vehicle, -100% = no light]"
10,COc1ccc(N2CCN(Cc3nnc(-c4cccc(Br)c4)o3)CC2)cc1,inactive: -2.44%
11,CCc1ccc(C(=O)c2cn(Cc3ccc(F)cc3)c3cc(OC)c(OC)cc3c2=O)cc1,inactive: -25%
12,CCS(=O)(=O)N1CC(=O)N(c2ccc(Cl)cc2)C(C)(C(=O)NC2CCCCCC2)C1 (configuration not stated),inactive: -14.6%
13,C[C@@H](Oc1cc(-n2cnc3ccc(CN4CCN(C)CC4)cc32)sc1C(N)=O)c1ccccc1C(F)(F)F,inactive: -44.5%
14,O=C(CCCN1CCC(O)(c2ccc(Br)cc2)CC1)c1ccc(F)cc1,inactive: -6.89%
15,Cc1ccc(NC(=O)[C@@H](c2ccccc2)N2Cc3ccccc3C2=O)cc1F,inactive: -6.49%
16,COc1ccc(CCNC(=O)Cn2c(=O)c3cccn3c3ccccc32)cc1OC,inactive: -14.8%
17,CCCc1nn2c(=O)cc(COC(=O)c3ccco3)nc2s1,inactive: -5.31%
18,Cc1c(C(=O)NCc2ccc(F)cc2)sc2nc(-c3ccc(F)cc3)cn12,inactive: -10.8%
19,CCCCOc1ccccc1C1CC(=O)Nc2cc(OC)c(OC)cc21 (configuration not stated),inactive: -23.7%

row,SMILES,"activity change, positive = activation"
1,CC(=O)Nc1c(C)nn(-c2ccccc2)c1N1CCC(C(=O)Nc2cccc(C(F)(F)F)c2)CC1,inactive: 5.96%
2,O=C(CSc1ncc2c(n1)-c1ccc(Cl)cc1N(Cc1ccccc1)S2(=O)=O)Nc1ccccc1C(F)(F)F,inactive: 14.7%
3,CCOC(=O)Cn1c(=O)n(CC2CCCO2)c2nc(-c3ccc(CC)cc3)nc(C(N)=O)c21 (configuration not stated),inactive: -7.04%
4,CCCN(CCC)C(=O)C1CCCN(c2ncnc3c2nc2n3CCCCC2)C1 (configuration not stated),inactive: -25.9%
5,CCc1nnc2c3ccccc3nc(N3CCN(c4cc(C)ccc4C)CC3)n12,"inactive: -19.4% [at 11.5 µM, percent change from vehicle, -100% = no light]"
6,Cc1ccccc1CN1C(=O)c2ccccc2S(=O)c2ccc(C(=O)NCc3ccc4c(c3)OCO4)cc21 (configuration not stated),inactive: -23.9%
7,COc1cccc(CNC(=O)CCC(=O)N2CC(C)Sc3ccccc32)c1 (configuration not stated),inactive: -20.5%
8,COc1ccc(CNC(=O)C(=O)Nc2cc(Cl)ccc2OC)cc1,inactive: 7.95%
9,CC(=O)Nc1cc(C(=O)Nc2ccc3c(c2)N(C)C(=O)c2ccccc2S3)ccc1C,inactive: -19.9%
10,COc1ccc(N2CCN(S(=O)(=O)CCNC(=O)c3c(F)cccc3Cl)CC2)cc1,inactive: -5.11%
11,Cc1ccc(S(=O)(=O)c2nnn3c2nc(N2CCC(C(N)=O)CC2)c2cc(Cl)ccc23)cc1C,inactive: -25.6%
12,Cc1ccc(NS(=O)(=O)c2c(C)nc3sc(C)cn3c2=O)c(C)c1,inactive: -32.1%
13,CNCC[C@H](Oc1cccc2ccccc12)c1cccs1,inactive
14,Cc1nc2c(c(C)nn2C(C)(C)C)c(C)c1CCC(=O)Nc1ccc(Br)cc1Br,inactive: -4.27%
15,COc1ccc(C(=O)Nc2nc3n(n2)C(c2ccc(F)cc2)C=C(c2ccc(Cl)cc2)N3)cc1 (configuration not stated),inactive: -34.8%
16,CCn1c(=O)c2sccc2n2c(CCCC(=O)Nc3ccc(OC)c(OC)c3)nnc12,inactive: 5.33%
17,CCOC(=O)c1ccc(NC(=O)c2cc3c([nH]c2=O)CC(c2ccccc2)CC3=O)cc1 (configuration not stated),inactive: -3.78%
18,N#C/C(=C1\SCC(c2ccccc2Cl)S1)n1ccnc1 (configuration not stated),inactive: -5.46%
19,COc1ccc(-n2cc(-c3ccc4c(c3)OCO4)n(CC(=O)Nc3cccc(C)c3)c2=O)cc1,inactive: -1.95%

row,SMILES,"activity change, positive = activation"
1,COc1cccc(-c2n[nH]c3c2C(c2ccccn2)N(C)C3=O)c1 (configuration not stated),inactive: -8.91%
2,O=C(CC1N=C2c3ccccc3N=C(SCC(=O)Nc3ccc(F)cc3)N2C1=O)NCc1ccc2c(c1)OCO2 (configuration not stated),inactive: 0.012%
3,Cc1cccc(NC(=O)Cn2cc(S(=O)(=O)Cc3ccccc3Cl)c3ccccc32)c1,inactive: -27.2%
4,Cc1cc(C)n(C(C)CC(=O)Nc2ccc(C)c(F)c2)n1 (configuration not stated),inactive: -10.4%
5,Cc1ccccc1Cn1c(SCc2ccc(C(=O)NCCc3ccccc3)cc2)nc2ccncc21,inactive: -3.51%
6,CSc1ncc(Cl)c(C(=O)N(Cc2ccc(C(C)C)cc2)C2CCS(=O)(=O)C2)n1 (configuration not stated),inactive: 0%
7,CCn1cc(S(=O)(=O)c2ccc(C)cc2C)c(=O)c2cc(F)c(N3CCCCC3)cc21,inactive: -25.4%
8,CCOc1ccc(NC(=O)CN2CCSc3ccc(S(=O)(=O)N4CCCC4)cc32)cc1,inactive: -38.8%
9,CCN(CC)c1cc2c(cc1F)c(=O)c(S(=O)(=O)c1ccccc1)cn2C,inactive: 8.2%
10,COC(=O)c1c(NC(=O)/C=C/c2ccc(OC)c(OC)c2)sc2c1CCC2,inactive: -12%
11,Cc1cc(C)cc(N(CC(=O)NCc2ccccc2Cl)S(=O)(=O)c2c(C)[nH]c(=O)[nH]c2=O)c1,inactive: -5.59%
12,Cc1noc(Cn2c(=O)c3ccccc3n(CC(=O)Nc3ccc(C(C)C)cc3)c2=O)n1,inactive: -19.2%
13,CC(Nc1oc(-c2ccc(COc3ccc(Cl)cc3)o2)nc1C#N)c1ccccc1 (configuration not stated),inactive: -17.6%
14,CCN(CC)CCCNC(=O)CN1C(=O)COc2ccc(S(=O)(=O)N3CCC(C)CC3)cc21,inactive: -11.6%
15,CCN(CC)c1ccc(NC(=O)CN2C(=O)c3cccnc3Oc3ccc(Cl)cc32)c(C)c1,inactive: -5.22%
16,COCCNC(=O)CSc1nnc2[nH]c(=O)cc(C)n12,inactive: 10.7%
17,O=C(NCc1ccccc1)c1ccc2c(c1)nc1n2CCOC1,inactive: 3.83%
18,CCc1ccccc1NS(=O)(=O)c1cc(Br)cc2c1N(C(=O)C1CC1)CC2,inactive: -56.7%
19,C[N+]1(C)CCCC(OC(=O)C(O)(c2ccccc2)c2ccccc2)C1 (configuration not stated),inactive: -4.33%
